# In PubChem BioAssay AID485294 (National Center for Advancing Translational Sciences (NCATS), 2010):
# The campaign covered roughly 370,000 compounds. About 150 (0.041%) were called active. The shares of active, inactive and inconclusive entries below differ from those in the screen. Calls follow the shape of the dose curve; as a rule, active = well fitted inhibition curve with a large enough effect; inconclusive = small, poorly fitted or top-dose-only effect; inactive = flat fitted curve, though single readings scatter. Potencies of inconclusive entries are left out as doubtful fits.
# Molecular target: Beta-lactamase (Escherichia coli (strain K12)) (UniProt P00811)
# Test: qHTS Inhibitors of AmpC Beta-Lactamase (assay with detergent); also: nearly all actives have a fitted effect of over 25% in size;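 as to activity change, negative = inhibition: 0% = no-compound wells and -100% = no-enzyme wells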
# Settings: AmpC hydrolysis of nitrocefin, absorbance 480 nm, 0.01% Triton; activity change, negative = inhibition: at 114 µM (top of the series)
# In short: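 AmpC (5.3 nM in the dispensed reagent) in 20 mM phosphate pH 7.0 with 0.01% (detergent screen) or 0.0001% Triton X-100 was preincubated with compounds for 15 min at room temperature. Nitrocefin was then added from an 800 uM solution, and hydrolysis was followed at 480 nm.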
# Potency is read from the fitted curve at half-maximal effect; tags tell the direction and shape of the fitted curve.
# UniProt P00811, sequence (P00811 whole entry, looked up): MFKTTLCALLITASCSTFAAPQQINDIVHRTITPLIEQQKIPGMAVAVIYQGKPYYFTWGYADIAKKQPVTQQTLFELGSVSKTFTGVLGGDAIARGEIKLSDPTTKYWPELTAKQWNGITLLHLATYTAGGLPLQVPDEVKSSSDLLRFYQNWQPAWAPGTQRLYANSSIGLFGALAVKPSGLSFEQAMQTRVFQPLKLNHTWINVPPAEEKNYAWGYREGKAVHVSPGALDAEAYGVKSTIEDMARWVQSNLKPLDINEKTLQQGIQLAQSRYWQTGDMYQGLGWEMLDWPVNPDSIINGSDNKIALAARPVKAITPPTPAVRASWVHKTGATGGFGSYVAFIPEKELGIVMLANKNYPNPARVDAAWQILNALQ
Compound,Potency,"activity change, negative = inhibition"
CN(C)CCN1C(=O)C(=O)/C(=C(/O)c2ccc(F)cc2)C1c1ccccc1F (stereo not drawn),"inconclusive [inhibitor, full curve, poor fit]",
Cc1nc2cc(-c3cccc(F)c3)nn2c(C)c1CCC(=O)NC(C)c1ccc2c(c1)OCCO2 (stereo not drawn),"inconclusive [inhibitor, partial curve, poor fit]",
O=C(COC(=O)c1ccc(O)cc1)Nc1ccc(OC(F)F)cc1,"inconclusive [inhibitor, full curve, poor fit]",
COc1ccc(C2Cc3ccccc3C(=O)O2)cc1 (stereo not drawn),"inconclusive [inhibitor, partial curve]",
O=C(N/N=C/c1cccc(F)c1)c1c(O)c2ccccc2[nH]c1=O,,inactive: 5.02%
COc1ccc(NC(=O)c2cc(S(=O)(=O)N3CCCCC3)c[nH]2)cc1,"inconclusive [inhibitor, partial curve, poor fit]",
O=C1c2oc3ccccc3c(=O)c2C(c2cccc(O)c2)N1CCCN1CCOCC1 (stereo not drawn),"inconclusive [inhibitor, full curve, poor fit]",
COCCCNC(=O)c1c(-c2ccccc2)noc1C,"inconclusive [inhibitor, full curve, poor fit]",
O=C(NCCCN1CCOCC1)c1ccc(Cl)c(S(=O)(=O)N2CCCCCC2)c1,"inconclusive [inhibitor, single point]",
CC(C)CNC(=O)C1CCN(S(=O)(=O)c2ccc(-n3cnnn3)cc2)CC1,"inconclusive [inhibitor, single point]",
COC(=O)CNC(=O)COC(=O)Cc1ccc(Cl)cc1,"inconclusive [inhibitor, full curve]",
CCN1CCN(c2c(S(=O)(=O)c3ccc(Cl)cc3)cnc3ccccc23)CC1,,inactive: -0.28%
CCN(CC)C(=S)SCC(=O)Nc1nc(=O)c2ccccc2s1,,inactive: -10.3%
COc1cc(CN(C)Cc2cc(=O)oc3cc(C)c(Cl)cc23)ccc1OC(F)F,,inactive: 0.567%
COc1ccc(NC(=O)NNC(=O)c2cc(C3CC3)nc3ccccc23)c(OC)c1,"inconclusive [inhibitor, full curve]",
CN(C)S(=O)(=O)c1ccc(C(=O)NCCS(=O)(=O)N2CCN(c3ccc(F)cc3)CC2)cc1,"inconclusive [inhibitor, full curve, poor fit]",
CNC1=C(N(C(C)=O)c2ccc(Br)cc2)C(=O)c2ccccc2C1=O,"inconclusive [inhibitor, full curve, poor fit]",
O=CN1CCCN(Cc2nc(-c3cccc(Cl)c3)no2)CC1,,inactive: 3.73%
C=CCSC1=C(C#N)C2(CCCCC2)C(C#N)C(=O)N1 (stereo not drawn),"inconclusive [inhibitor, full curve, poor fit]",
CCc1ccc(S(=O)(=O)NCc2nc3cccnc3n2Cc2ccccc2Cl)cc1,,inactive: 5.37%
CCOC(=O)c1cnn(-c2ccccc2)c1NC(=O)C(F)(F)C(F)(F)C(F)(F)F,"inconclusive [inhibitor, full curve]",
Cc1cccc(N2CN(Cc3ccco3)CNC2=S)c1,"inconclusive [inhibitor, single point]",

Compound,Potency,"activity change, negative = inhibition"
CC(=O)c1ccc(-n2nnnc2SCC(=O)N2CCN(C(=O)c3ccco3)CC2)cc1,"inconclusive [inhibitor, full curve, poor fit]",
COc1cc(C(=O)Nc2ccc(NC(=O)c3ccccc3Cl)nc2)cc(OC)c1OC,"inconclusive [inhibitor, full curve, poor fit]",
Cc1ccc(NC(=O)c2cnc(SCC(=O)NCC3CCCO3)n(C)c2=O)cc1C (stereo not drawn),"inconclusive [inhibitor, partial curve, poor fit]",
O=C(O)c1ccccc1NS(=O)(=O)c1cccc(-n2sc3ccccc3c2=O)c1,"inconclusive [inhibitor, full curve]",
O=C(c1ccco1)N(Cc1cccc(F)c1)C1CCS(=O)(=O)C1 (stereo not drawn),,inactive: -12.1%
C=CCN(c1ccccc1)S(=O)(=O)c1cccc(C(=O)Nc2ccncc2)c1,,inactive: -11.4%
N#C/C(=C/c1ccc(N2CCCCC2)o1)c1cccc(F)c1,"inconclusive [inhibitor, single point]",
Cc1nc(SCC(N)=O)[nH]c(=O)c1Cc1ccc(OC(C)C)cc1,,inactive: -0.75%
COc1cc([C@H]2c3c(cc(OC)c(O)c3OC)C[C@@H](CO)[C@@H]2CO[C@@H]2O[C@H](CO)[C@@H](O)[C@H](O)[C@H]2O)cc(OC)c1O,"inconclusive [inhibitor, full curve, poor fit]",
CCOc1ccc(-n2cc(-c3ccccc3)c3c(N4CCC(C)CC4)ncnc32)cc1,,inactive: -2.78%
O=c1oc2ccc(Cl)cc2nc1/C=C(\O)c1ccco1,,inactive: 2.13%
CCC(C)COC(=O)C(C#N)c1nc2ccccc2nc1N1CCCCC1 (stereo not drawn),"inconclusive [inhibitor, full curve, poor fit]",
S=C(c1ccc(N2CCOCC2)cc1)N1CCOCC1,"inconclusive [inhibitor, single point]",
CC(C)C(c1nnnn1CC1CCCO1)N1CCN(C2CCCC2)CC1 (stereo not drawn),"inconclusive [inhibitor, partial curve, poor fit]",
CC1CCc2c(C(=O)NCc3cccnc3)csc2C1 (stereo not drawn),"inconclusive [inhibitor, full curve, poor fit]",
COc1cc2c(cc1OC)C(c1cc3cccc(C)c3[nH]c1=O)N(C(=O)c1ccco1)CC2 (stereo not drawn),,inactive: 5.56%
CCC/C(=N\NC(=O)c1ccccc1C)c1ccccc1,"inconclusive [inhibitor, partial curve]",
C(=N\n1cnnc1)/c1ccccc1OCCOc1ccccc1,"inconclusive [inhibitor, partial curve, poor fit]",
CCCCNC(=S)N(C)/N=C/c1sc(N2CCCCC2)nc1-c1cccs1,,inactive: -3.34%
Cn1c(SCC(=O)Nc2ncc(C(F)(F)F)cc2Cl)nnc1-c1ccc(Cl)cc1,,inactive: -10.5%
O=C(CSc1nccn(-c2ccc(Br)cc2)c1=O)NC1CCCC1,"inconclusive [inhibitor, full curve, poor fit]",
